Measured values taken from PubChem BioAssay AID1347417 (National Center for Advancing Translational Sciences (NCATS), 2020).
Where “and” joins values, the source holds several entries; their conditions need not be identical. Equal entries are not always repeated. Out of some 120,000 compounds screened, about 5,300 (4.4%) were called active. The shares of active, inactive and inconclusive entries below differ from those in the screen. Calls come from the whole dose curve; as a rule, active = well fitted inhibition curve with a large enough effect; inconclusive = small, poorly fitted or top-dose-only effect; inactive = no such curve, though single readings can be large or run the other way. Potencies of inconclusive entries are doubtful fits and often do not repeat.

test: qHTS Primary assay for Inhibitors of Plasmodium falciparum Dd2 growth in vitro; note: nearly all actives have a fitted effect of over 65% in size;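 for activity, negative = inhibition: plate controls were DMSO vehicle for no effect and reference drug for full effect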; settings: P. falciparum Dd2 growth, SYBR Green, 72 h; activity, negative = inhibition: at 28.9 µM (top of the series) unless noted; series mostly up to 28.9 µM
Outline: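 Infected erythrocytes (Dd2, 0.3% parasitemia, 2.5% hematocrit final) are added to compound in RPMI-1640/Albumax II medium, grown 72 h at 37C in low oxygen, then lysed with saponin/Triton-X containing SYBR Green and read by fluorescence.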
Potency is the fitted concentration of half-maximal effect; tags give direction and shape of the fitted curve.

Row | Compound | activity, negative = inhibition | Potency | outcome
1 | CCc1nncn1C1CCN(C(=O)c2cccc(C)c2)CC1 | inactive: -11.6% | – | –
2 | CS(=O)(=O)c1ccc(CN2CC[C@H]3NCCC[C@]3(C(=O)O)C2)cc1 | inactive: -2.1% | – | –
3 | COc1cc(OC)cc(C(=O)NCCn2ccn3nc(-c4cccc(OC)c4)cc3c2=O)c1 | – | inconclusive: 1 µM [inhibitor, partial curve, poor fit] | –
4 | CCOC(=O)c1c(NC(=O)COc2c(C)cc(Cl)cc2Cl)sc2c1CCCC2 | – | inconclusive: 12.6 µM [inhibitor, single point] | –
5 | COc1ccc(S(=O)(=O)NCC(c2ccc(N(C)C)cc2)N2CCCC2)cc1 (centres undefined) | – | inconclusive: 7.94 µM [inhibitor, partial curve] | –
6 | COc1ccc(CN2C(=O)COC[C@H]2C(=O)Nc2ccc3c(c2)OCCO3)c(OC)c1 | – | inconclusive: 17.8 µM [inhibitor, single point] | –
7 | CCS(=O)(=O)N1CCC2(CC1)NCCc1c2[nH]c2ccccc12 | – | inconclusive: 6.31 µM [inhibitor, partial curve, poor fit] | –
8 | COc1cccc(CNC(=O)c2oc3c(c2C)-c2nn(Cc4cccc(Cl)c4)cc2CC3)c1 | – | inconclusive: 12.6 µM [inhibitor, single point] | –
9 | CCC(C)(C)NC(=O)C1CCN(S(=O)(=O)c2c(C)noc2/C=C/c2ccc(C)cc2)CC1 | – | inconclusive: 15.8 µM [inhibitor, single point] | –
10 | Cc1cc(C(F)(F)F)nn1CC(=O)N1CCc2n[nH]c(=O)n2CC1 | inactive: 20.5% | – | –
11 | CCN1CCC(N2CCCC(N3CCN(c4cccc(Cl)c4)CC3)C2)CC1 (centres undefined) | – | inconclusive: 20 µM [inhibitor, partial curve, poor fit] | –
12 | CC1=C[C@@H](CNC(=O)CCC(=O)O)[C@H](C(C)C)C[C@H]1Cc1nc2ccc(F)cc2[nH]1 | inactive: -17.4% [at 44.1 µM] | – | –
13 | COc1cccc(OCc2nnc(C(=O)N3CCC[C@@H]3c3nc4ccccc4[nH]3)n2-c2ccccc2)c1OC | – | inconclusive: 11.2 µM [inhibitor, single point] | –
14 | O=C(c1ccccc1F)N1CCC2(CC1)CC(=O)N(c1ccccc1)c1ccccc1O2 | – | inconclusive: 17.8 µM [inhibitor, single point] | –
15 | O=C(NCC1Cn2cccc2C(=O)N1Cc1ccccc1)c1ccc2ncccc2c1 (centres undefined) | – | inconclusive: 11.2 µM [inhibitor, single point] | –
16 | Cc1c(Cl)cccc1NC(=O)CCS(=O)(=O)c1ccc2c(c1)oc(=O)n2C | – | active: 3.16 µM | –
17 | Cc1cnc(CC2CCN(C(=O)C3CCC3)C2)n1C(C)C (centres undefined) | – | inconclusive: 8.91 µM [inhibitor, partial curve] | –
18 | COc1cc(CN2CCc3nc(N4CCN(c5ncccn5)CC4)ncc3C2)cc(OC)c1OC | – | active: 7.94 µM | –
19 | Cc1nc(-c2cn(C3CCCN(C(=O)c4cccc(Cl)c4)C3)nn2)no1 (centres undefined) | – | – | inactive
20 | Cn1nc(C(=O)NCc2cccc(Cl)c2)c2c1-c1ccccc1S(=O)(=O)C2 | inactive: -26.8% | – | –
21 | Cc1ccccc1CN1CCN(C(=O)CN2CCCC2=O)CC(O)C1 (centres undefined) | inactive: 1.49% | – | –
22 | Cc1cc2nc(CO[C@H]3CN(Cc4ccc(C(F)(F)F)cc4)C[C@H]3F)[nH]c2cc1C | – | inconclusive: 20 µM [inhibitor, single point] | –

Row | Compound | activity, negative = inhibition | Potency | outcome
23 | COc1ccc(CN2CCCC3(CC(Cc4ccccc4)=NO3)C2)cc1 (centres undefined) | – | inactive | –
24 | O=C(NCCCN1CCCCC1)C1CN(S(=O)(=O)c2cccnc2)CC12CCCCC2 (centres undefined) | – | inconclusive: 7.94 µM [inhibitor, partial curve, poor fit] | –
25 | CCOCC(O)Cn1cnc(-c2ccccc2)c1-c1cccc(OC)c1F (centres undefined) | – | inconclusive: 12.6 µM [inhibitor, single point] | –
26 | O=C(CSc1nc2ccccc2nc1Cc1ccc(Cl)cc1)N1CCCc2ccccc21 | – | inconclusive: 17.8 µM [inhibitor, single point] | –
27 | CC(C)N1CCN(C(=O)CCC2CCN(S(=O)(=O)c3ccccc3F)CC2)CC1 | – | inconclusive: 17.8 µM [inhibitor, single point] | –
28 | CCC(=O)N1CCC2(CC1)c1[nH]c3ccccc3c1CCN2C | – | inconclusive: 5.01 µM [inhibitor, partial curve, poor fit] | –
29 | Cc1nn(C)c2nc(NCCCOC3CCCC3)sc12 | – | inconclusive: 10 µM [inhibitor, single point] | –
30 | CC1=C[C@@H](CN2CCN(c3ccccc3)CC2)[C@H](C(C)C)C[C@H]1Cc1nnc(-c2cncn2C)o1 | – | active: 3.98 µM | –
31 | COc1cccc(C(=O)N(Cc2cccnc2)c2nc3c(OC)ccc(C)c3s2)c1OC | – | inconclusive: 17.8 µM [inhibitor, single point] | –
32 | FC(F)(F)c1cccc(-c2cc(C3=CCOCC3)c3cncn3c2)c1 | – | active: 14.1 µM | –
33 | Cc1ccc(C(=O)NCC(c2ccc3c(c2)OCO3)N2CCN(C)CC2)cc1C (centres undefined) | – | inconclusive: 17.8 µM [inhibitor, single point] | –
34 | O=C(c1ccccn1)N1CCn2c(nnc2-c2ccccc2)C1 | inactive: -21.3% [at 44.1 µM] | – | –
35 | N[C@H]1CN(C(=O)c2coc(CN3CCOCC3)c2)C[C@@H]1c1ccccc1 | inactive: 1.53% | – | –
36 | CCOC(=O)c1cnc2c(ccc3ccccc32)c1Nc1cccc(C(F)(F)F)c1 | – | inconclusive: 17.8 µM [inhibitor, single point] | –
37 | CC(C)c1nc2c(c(-c3ccc(O)cc3)n1)CN(Cc1ccc(OC(F)(F)F)cc1)CC2 | – | inconclusive: 2.51 µM [inhibitor, full curve, poor fit] | –
38 | O=C1CCN(C(=O)c2ccccc2)CCCC(C(=O)NCCCN2CCCc3ccccc32)CCN1 (centres undefined) | – | inconclusive: 7.08 µM [inhibitor, partial curve] | –
39 | Cc1cccc(CC(=O)N2CCC(c3nn(C)c4c3COCC4)CC2)c1 | – | – | inactive [at 5.79 µM]
40 | N#Cc1cccc(CN2Cc3[nH]cnc3C[C@H]2c2nc(-c3cccc([N+](=O)[O-])c3)no2)c1 | – | active: 12.6 µM | –
41 | CC(C)Oc1ccccc1CN1CCC2(CC1)CN(c1ncccn1)CC2CO (centres undefined) | – | inconclusive: 3.55 µM [inhibitor, full curve] | –
42 | Cc1nc(-c2c3n(c(=O)n(CC(=O)Nc4ccc(C)c(F)c4)c2=O)CCCCC3)no1 | inactive: 14% | – | –
43 | c1ccc(CN2CCC3(CC2)CC(c2cccnc2)=NO3)cc1 | – | inconclusive: 2.82 µM [inhibitor, partial curve, poor fit] and inconclusive: 12.6 µM [inhibitor, single point] | –
44 | O=C(Nc1ccc2c(c1)CCC2)c1cc2c(s1)CN(C1CC1)C2 | – | inconclusive: 11.2 µM [inhibitor, single point] | –

Row | Compound | activity, negative = inhibition | Potency | outcome
45 | CCOc1ccc(NC(=O)c2cnn(-c3ccc(C)c(C)c3)c2C2CCN(C(=O)OC(C)(C)C)CC2)cc1 | – | inconclusive: 5.01 µM [inhibitor, partial curve] | –
46 | O=C(CN1C(=O)CCn2nc(-c3ccccc3)cc21)NCc1ccc(F)cc1 | – | inconclusive: 17.8 µM [inhibitor, single point] | –
47 | Cc1cn2nnc(C(=O)N3CCC(C(=O)Nc4ccc(C(C)C)cc4)CC3)c2c(=O)[nH]1 | – | inconclusive: 17.8 µM [inhibitor, single point] | –
48 | C[C@H]1[C@@H]2[C@@H](O)C([C@H](C)C(=O)NC(C)(C)C)CC[C@@]2(C)CC[C@@H]1NC(=O)c1cccc(F)c1 (some centres undefined) | inactive: -4.65% | – | –
49 | Cn1cccc1C(=O)N1CCC(c2noc(COc3ccc(F)cc3)n2)CC1 | – | – | inactive
50 | Cc1ccccc1OCC(=O)Nc1ccccc1C(=O)OCc1cc(=O)n2ccsc2n1 | – | inconclusive: 0.631 µM [inhibitor, full curve, poor fit] | –
51 | COc1ccccc1N1CCCc2ncc(C(=O)N3CCCC[C@@H]3c3ccccc3)cc21 | – | inconclusive: 2 µM [inhibitor, partial curve, poor fit] | –
52 | Cc1cccc(N(C)C(=O)CN2C(=O)NC3(CCCCC3)C2=O)c1 | inactive: -6.58% | – | –
53 | COc1ccc(Cn2c(-c3ccc(F)cc3)nc(C)c(CCO)c2=O)cc1F | – | inconclusive: 11.2 µM [inhibitor, partial curve, poor fit] | –
54 | Cn1cccc1CN1CCC2(CC1)COc1ccccc1NC2=O | – | inconclusive: 12.6 µM [inhibitor, partial curve, poor fit] | –
55 | CCOc1ccccc1CN1CCCCCNC(=O)[C@@H]2CCC[C@@H]21 | – | inconclusive: 1 µM [inhibitor, partial curve, poor fit] | –
56 | O=C(NCCc1cccs1)c1ccc(Cn2c(SCc3ccc(F)cc3)nc3cccnc32)cc1 | – | inconclusive: 12.6 µM [inhibitor, single point] | –
57 | O=C(CC1CCCCN(Cc2ccccc2)C1=O)N1CCN(c2ccc(F)cc2)CC1 (centres undefined) | – | active: 11.2 µM | –
58 | CC(C)(C(=O)NCCc1ccccn1)C1CCOCC1 | – | inconclusive: 3.98 µM [inhibitor, single point] | –
59 | COc1cccc(C2CC(=O)Nc3cc4c(cc32)OCCO4)c1OC (centres undefined) | – | inconclusive: 10 µM [inhibitor, single point] | –
60 | Cc1ccccc1Cn1c(SCc2ccc(C(=O)NC(C)c3ccccc3)cc2)nc2ccncc21 (centres undefined) | – | active: 6.31 µM | –
61 | CCn1cc(CN(C)C(=O)[C@H]2CN(Cc3ccccc3)C[C@H]2C(=O)O)c(C)n1 | – | inconclusive: 3.98 µM [inhibitor, single point] | –
62 | COc1cccc(-c2noc(CCCC(=O)N[C@H]3C[C@@H]4OCC[C@H]34)n2)c1 | inactive: -14.4% | – | –
63 | Cc1ccc2nc(N(Cc3cccnc3)C(=O)Cc3ccccc3)sc2c1 | – | active: 5.01 µM | –
64 | COc1ccc(C(=O)N2CCC[C@H]2c2nc(-c3ccccc3Cl)no2)cc1OC | – | inconclusive: 0.282 µM [inhibitor, full curve, poor fit] | –
